In all, about 44,000 compounds went through this assay and about 340 (0.77%) were called active. Another 5% or so got no clear call; they are omitted. Calls follow the shape of the dose curve; as a rule, active = well fitted inhibition curve with a large enough effect; inconclusive = small, poorly fitted or top-dose-only effect; inactive = flat fitted curve, though single readings scatter. The list shows a part of the results.
assay: Acumen qHTS Assay for Inhibitors of the mTORC1 Signaling Pathway in MEF (Tsc2-/-, p53-/-) Cells: Sytravon; conditions: phospho-rpS6 immunofluorescence/PI, 24 h; series mostly up to 38.3 µM; activity change, negative = inhibition: at the top concentration;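 also: plate controls were DMSO for no effect and rapamycin for full effect; nearly all actives have a fitted effect of over 50% in size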
Procedure, shortened: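 Compounds act on Tsc2-/-, p53-/- fibroblasts carrying an empty vector for 24 h before fixation and dual staining for phospho-S6 and DNA (propidium iodide). Values are percentages of cells above a rapamycin-defined pS6/PI threshold.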

Row | SMILES | activity change, negative = inhibition
1 | Cc1ccc(OCc2ccc(-c3nc(C#N)c(NCc4cccnc4)o3)o2)cc1 | inactive: -1.26%
2 | CCc1cccc(-n2nnc(-c3nsc(NC(=O)c4cccs4)n3)c2C)c1 | inactive: 1.29%
3 | COc1ccc(CC2C(=O)Nc3ccc(Br)cc32)cc1OC (configuration not stated) | inactive: -12.6%
4 | COc1ccc(NC(=O)CCc2c(C)nc3nc(CNC(=O)OC(C)(C)C)nn3c2C)cc1OC | inactive: -2.65%
5 | COc1ccc(S(=O)(=O)NCC(c2ccco2)N2CCN(c3ccc(F)cc3)CC2)cc1C (configuration not stated) | inactive: -5.31%
6 | CCc1ccccc1NC(=O)N1CCN(C(=O)c2nsc3ccccc23)CC1 | inactive: 2.64%
7 | CCc1ccc(NC(=O)CC2C(=O)N(c3cccc(C)c3)C(=O)N2Cc2ccco2)cc1 (configuration not stated) | inactive: -0.32%
8 | CC1CCN(S(=O)(=O)c2ccc3c(ccn3CCC(=O)NCc3ccc(N(C)C)cc3)c2)CC1 | inactive: -12.8%
9 | CCNc1nc(NC(C)(C)C)nc(Oc2ccc(=O)n(C)n2)n1 | inactive: 3.12%
10 | O=C(NCCc1ccccc1)C(=O)NCC(c1ccc2c(c1)OCO2)N1CCOCC1 (configuration not stated) | inactive: 2.33%
11 | CCS(=O)(=O)N1CCc2cc(C(=O)NCCc3ccc(OC)cc3)ccc21 | inactive: 0%
12 | CC1CCN(S(=O)(=O)c2nnc(NC(=O)c3cccc(Br)c3)s2)CC1 | inactive: -1.9%
13 | COc1cc(NC(=O)CC(C)n2nc(C)cc2C)cc(OC)c1 (configuration not stated) | inactive: -5.5%
14 | CCOc1ccccc1C(=O)N(Cc1ccccc1F)C1CCS(=O)(=O)C1 (configuration not stated) | inactive: 4.45%
15 | Cc1ccc(-c2nnc3ccccc3c2C(=O)Nc2ccccc2F)cc1 | inactive: 7.21%
16 | COc1cc(NC(=O)C(CCSC)NS(=O)(=O)c2ccc3c(c2)oc(=O)n3C)cc(OC)c1 (configuration not stated) | inactive: 0.56%
17 | COc1ccc(Cl)cc1NC(=O)CSc1cn(CC(=O)N2CCCCCC2)c2ccccc12 | inactive: -9.8%
18 | Cc1ccc(-n2c(=O)c3c(c4cc(C)ccc4n3C)n(CC(=O)NCc3ccccc3)c2=O)cc1 | inactive: 5.18%
19 | COc1ccccc1NC(=O)CSc1nc(-c2ccccc2F)nc2cc(=O)[nH]n12 | inactive: -0.541%
20 | COc1ccc(NC(=O)c2c(NCc3cccc(OC)c3)sc3c2CCCC3)cc1 | inactive: -10.6%
21 | CC(C)(C)c1ccc(C(=O)N2CCC(c3nc4ccccc4o3)CC2)cc1 | inactive: -12%
22 | O=C(CCC1N=C2c3ccccc3N=C(SCc3ccccc3F)N2C1=O)NCc1ccc(F)cc1 (configuration not stated) | inactive: 0.101%
23 | Cc1ccc2occ(CC(=O)N(Cc3ccc(C(C)C)cc3)C3CCS(=O)(=O)C3)c2c1 (configuration not stated) | inactive: -26.2%
24 | CC1=C(c2ccc(Cl)cc2)S(=O)(=O)N=C1N1CCC(C(=O)NCc2ccccc2F)CC1 | inactive: -28.3%
25 | COc1ccc(CCNc2nc3c(-c4cccc(C)c4)nnn3c3ccccc23)cc1OC | inactive: -21%

Row | SMILES | activity change, negative = inhibition
26 | COc1ccc(S(=O)(=O)N(CC(=O)Nc2cccnc2)c2ccc(Cl)cc2)cc1 | inactive: -3.72%
27 | COc1ccc(CNC(=O)Cn2c(=O)cc(-c3ccccc3)c3c(C)nn(C)c32)cc1 | inactive: -21.1%
28 | COc1ccc(NC(=O)Cn2c(=O)ccc3cc(S(=O)(=O)N4CCCC4)ccc32)cc1Cl | inactive: -0.758%
29 | Clc1cccc(-n2ncc3c(NCCCn4ccnc4)ncnc32)c1 | inactive: 11.8%
30 | CCc1ccc2oc(C(=O)Nc3ccccc3C(=O)OC)cc(=O)c2c1 | inactive: 5.71%
31 | Cc1ccccc1NC(=O)c1c(C)oc2ccc(O)c(CN3CCN(C)CC3)c12 | inactive: -3%
32 | O=C(Nc1ccc(Cl)c(C(F)(F)F)c1)C1CCN(S(=O)(=O)c2cccc3nonc23)CC1 | inactive: -6.83%
33 | Cc1cccn2c(=O)c(C(=O)NCCc3ccc(S(N)(=O)=O)cc3)c(O)nc12 | inactive: 0.154%
34 | Cc1ccccc1CSc1cn(CC(=O)N2CCCCCC2)c2ccccc12 | inactive: -6.94%
35 | CCCCn1c(NCc2ccc(N(C)C)cc2)nc2ccccc21 | inactive: -14.4%
36 | O=C(O)Cn1ccc2cc(S(=O)(=O)N3CCCCCC3)ccc21 | inactive: 1.7%
37 | COc1ccc(CNC(=O)COCc2cc(-c3cccs3)on2)cc1 | inactive: -6.92%
38 | Cc1ccccc1CSc1nc2ccsc2c(=O)n1CCC(C)C | inactive: -2.81%
39 | Cc1ccc2cc(CN(C(=O)c3cccc(Cl)c3)c3ccccc3)c(=O)[nH]c2c1 | inactive: -6.91%
40 | CCCSCCCNC(=O)c1ccc2c(c1)sc1nc(-c3ccc(OCC)cc3)cn12 | inactive: 7.33%
41 | COc1ccccc1NC(=O)c1oc2ccccc2c1NC(=O)C1CCCCC1 | inactive: 0.987%
42 | CC1C(=O)N2CCCc3cc(S(=O)(=O)N4CCC(C(N)=O)CC4)cc1c32 (configuration not stated) | inactive: -13%
43 | COc1cccc(CNC(=O)c2cnc(N3CCCCC3)c3ccccc23)c1 | inactive: -5.69%
44 | O=C(NCc1ccccc1F)C1CCN(c2nn3cc(-c4ccc(F)cc4)nc3s2)CC1 | inactive: -5.24%
45 | CN1c2ccc(Cl)cc2-c2nc(SCC(=O)NCc3ccccc3)ncc2S1(=O)=O | inactive: -4.95%
46 | O=C(Nc1ccccc1C(F)(F)F)N1CCC(CN2CCc3ccccc3C2)CC1 | inactive: 0.721%
47 | COc1ccc(C)cc1NC(=O)C(Cc1ccccc1)NS(=O)(=O)c1cccs1 (configuration not stated) | inactive: -0.0739%
48 | O=C(NC1CC(=O)N(c2cccc(F)c2)C1)c1cc2ccccc2o1 (configuration not stated) | inactive: -15.3%
49 | CCOC(=O)c1ccc(CN(Cc2ccccc2C)S(=O)(=O)c2ccc(F)c(C)c2)cc1 | inactive: 8.64%
50 | COCCNc1oc(/C=C/c2ccc(F)cc2)nc1C#N | inactive: -0.393%

Row | SMILES | activity change, negative = inhibition
51 | COc1ccc(Nc2ncnc3c2cnn3-c2ccc(C)cc2)cc1Cl | inactive: -15.7%
52 | CCC(=O)N1CCc2cc(Br)cc(S(=O)(=O)CCC(=O)NCc3cccc(OC)c3)c21 | inactive: -0.455%
53 | Cc1ccc(-n2c(=O)c3c(cnn3C)n(CC(=O)Nc3ccccc3C)c2=O)cc1 | inactive: -1.31%
54 | Cc1ccc(CNC(=O)CCCn2c(=O)[nH]c3ccc(Br)cc3c2=O)cc1 | inactive: -17.7%
55 | Cc1cccc(Cn2cc(S(=O)(=O)c3cccc(C)c3)c(=O)c3cc(F)c(N4CCOCC4)cc32)c1 | inactive: -3.38%
56 | CCCCn1c(=NC(=O)c2cc3ccccc3o2)c(C(=O)OCC)cc2c(=O)n3ccccc3nc21 | inactive: -8.24%
57 | O=C(Cn1c(=O)oc2cc(S(=O)(=O)N3CCCCC3)ccc21)NCc1ccc(Cl)cc1 | inactive: -8.78%
58 | O=C(Oc1ccc(Cl)cc1)c1cc(-c2ccc3c(c2)OCCO3)on1 | inactive: -5.25%
59 | CCN(CC)CCNC(=O)Cn1nc(C)c2c(C)n(-c3ccccc3)nc2c1=O | inactive: -3.33%
60 | COc1ccc(Cn2ccnc2SCC(=O)NCc2ccco2)cc1 | inactive: -0.818%
61 | Cc1cccc(N2CCN(S(=O)(=O)c3ccc4c(c3)CC(=O)N4C)CC2)c1C | inactive: -14.8%
62 | COC(=O)c1ccccc1NC(=O)c1ccc2nc(CCc3ccccc3)oc2c1 | inactive: 1.42%
63 | COc1cccc(-c2noc(COc3ccccc3Cl)n2)c1 | inactive: 0.73%
64 | Cc1ccc(Cl)cc1NC(=O)CSc1nc2ccccc2nc1Cc1ccccc1 | inactive: 5%
65 | COc1ccccc1N1CCN(CC(O)COc2cc(C)cc(C)c2)CC1 (configuration not stated) | inactive: -0.828%
66 | CCOc1ccc(N2C(=O)N(Cc3ccc(C)cc3C)c3ccccc3S2(=O)=O)cc1 | inactive: 0.0426%
67 | COc1cccc(CNC(=O)CCCN2C(=O)CSc3c2c(C)nn3-c2ccccc2)c1 | inactive: 0%
68 | COc1ccc(-c2ccc3c(N)c(C(=O)Nc4cc(F)ccc4C)sc3n2)cc1 | inactive: -18%
69 | Cc1cccc(Nc2c3c(nc4nncn24)CCC3)c1 | inactive: -0.683%
70 | CCn1cc(C(=O)N2CCN(c3cc(C)ccc3C)CC2)c(=O)c2cc(S(=O)(=O)N(C)C3CCCCC3)ccc21 | inactive: -2.68%
71 | Cc1ccc(-c2cc(C(=O)NCCc3ccccc3)c3c(-c4ccc(C)cc4)[nH]nc3n2)cc1 | inactive: -2.84%
72 | CCCCN1CCc2nc(N3CCN(c4ncccn4)CC3)ncc2C1 | inactive: -5.08%
73 | Cc1ccc(NC(=O)CSc2nc3c([nH]c4ccccc43)c(=O)n2-c2ccccc2)c(C)c1 | inactive: -1.97%
74 | CCN(c1ccccc1)S(=O)(=O)c1ccc(NC(=O)c2cc(=O)c3cc(C)c(C)cc3o2)cc1 | inactive: 1.96%
75 | Cc1cccc(NS(=O)(=O)c2ccc3c(c2)CCN3C(=O)CCC(=O)O)c1C | inactive: -3.59%

Row | SMILES | activity change, negative = inhibition
76 | COc1cccc(-n2cc(C(=O)NCc3cccc(Cl)c3)c3ccccc3c2=O)c1 | inactive: -4.68%
77 | COc1ccc(S(=O)(=O)Nc2cc3c(cc2NCc2ccccc2)n(C)c(=O)n3C)cc1OC | inactive: -14.2%
78 | CCOc1ccc(C(=O)Nc2ccc3nc(SCc4ccccc4)sc3c2)cc1 | inactive: -13%
79 | CCOc1ccc(NC(=O)c2ccc(-c3ccccc3)s2)cc1 | inactive: -0.0634%
80 | Cc1nc2c(-c3ccc(F)cc3)c(C)nn2c(C)c1CCC(=O)NCc1ccc(Cl)cc1 | inactive: 0.295%
81 | COc1ccccc1N1CCN(C(=O)Cn2c(=O)nc(-c3ccccc3)c3cc(Cl)ccc32)CC1 | inactive: 1.1%
82 | Cc1ccc2c(=O)cc(CSc3nnc(-c4ccccc4)n3C)[nH]c2c1C | inactive: -0.414%
83 | Cc1cc(C)c(NC(=O)c2cc3c(=O)n4ccccc4nc3n2C)c(C)c1 | inactive: 0.4%
84 | Cc1cc(-c2nc3ncccc3o2)ccc1NC(=O)c1ccc(Br)cc1 | inactive: 0.911%
85 | CCOC(=O)Cn1c(=O)n(C2CCCCC2)c2nc(-c3ccc(Cl)cc3)nc(C(N)=O)c21 | inactive: 1.33%
86 | Cc1c(Cl)cccc1NC(=O)c1ccc(C(=O)Nc2cccc(Cl)c2C)cc1 | inactive: -3.48%
87 | CC1CCN(C(=O)c2cnn(-c3cccc(Cl)c3)c2C2CCN(C(=O)OC(C)(C)C)CC2)CC1 | inactive: 5.51%
88 | CC(=O)N1CCc2c(sc3c2c(=O)n(-c2ccccc2C)c(=O)n3Cc2cccc(F)c2)C1 | inactive: -3.98%
89 | COc1cc(OC)cc(-n2nnc(-c3nc(-c4ccccc4Cl)no3)c2N)c1 | inactive: -7.99%
90 | CSc1ccc(CNC(=O)c2ccccc2NC(=O)c2nsc3ccccc23)cc1 | inactive: -9.05%
91 | CC(=O)N1c2ccccc2C(=O)C1N1CCN(c2ccccc2)CC1 (configuration not stated) | inactive: 0%
92 | COc1ccc(NC(=O)c2c(-c3ccccc3)c(-c3ccccc3)nn(C)c2=O)c(OC)c1 | inactive: 0.775%
93 | COc1ccc(OCC(=O)NCC(c2ccc(Cl)cc2)N2CCCCC2)cc1 (configuration not stated) | inactive: -15.9%
94 | COc1ccc(CN2COc3ccc4c(oc(=O)c5ccccc54)c3C2)cc1OC | inactive: 2.42%
95 | Cc1ccccc1Nc1c(-c2ccc(N3CCOCC3)cc2)nc2ncccn12 | inactive: 4.28%
96 | O=C(Nc1ccccc1-c1nc2ccccc2s1)c1cc(Cl)cc(Cl)c1 | inactive: -1.65%
97 | Cc1c(CNC(C)CCc2ccccc2)c(C(=O)O)c(C)n1Cc1ccc(F)cc1Cl (configuration not stated) | inactive: -7.71%

— PubChem BioAssay AID493208 (National Center for Advancing Translational Sciences (NCATS), 2011)
